Results: the supplement of paper PMC11417369
Some of the results follow.

Test system: PF3D7_0420300 AP2 domain 1 (GST-tagged)
Assay: gcPBM binding intensity (ln(normalized median fluorescence intensity)); higher = stronger DNA binding
Outline: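 Binding intensity values are the highest Masliner-normalised natural-log median intensity among replicate spots of either probe orientation. The binding step lasted 1 h in 1× PBS with 1% milk, 0.2 mg/ml BSA, 0.5% salmon testes DNA and 0.03% Triton X-100, using GST-tagged P. falciparum DNA-binding domains expressed in E. coli on an Agilent 4 × 180k array of primer-extended double-stranded 36-bp intergenic genomic probes plus negative controls. Alexa488 anti-GST antibody and a 488 nm scan detected bound protein.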

| Sequence | gcPBM binding intensity (ln) |
| --- | --- |
| AATATATAAACACGTACACACACATATATGTATATA [CACACA_site9168] | 9.96 |
| AATTTAAATATTTGTTGTACGTATTTATATATTCTT [XGTACX_site3623] | 9.54 |
| TATTATATCTTATATGTATATTCCCACAAATTATAT [GTGCAC_negctrl_site362] | 9.2 |
| ATAATATATAAACACACACACATATATAAATACATT [CACACA_site4466] | 10.1 |
| CATGCCGTTAAATTATGTACTTATTATTTTAATATG [XGTACX_site4209] | 9.31 |
| TTAAAAAATTATTGTAGTACATAGGAAATGAAAAAA [XGTACX_site155] | 9.28 |
| TAAATTAAATATTATAAACACACATATATATTATTT [CACACA_site8189] | 9.35 |
| ATATAAATAAATACAACACACATGTCATATCTAAAT [CACACA_site7533] | 9.67 |
| TATATACATAAAATTTGTACATATATATATATATAT [XGTACX_site3214] | 9.28 |
| AAAAAAAAAAAATGAGCACACATAAATAAAAACAAA [CACACA_site8447] | 9.81 |
| ATATTATTCTTATATTCACACAGTTTATATTTCCGT [CACACA_site5653] | 9.51 |
| AAATTACATACACGCGCACACACAAAAAAAAAAAAA [CACACA_site1335] | 9.81 |
| TTCCAAAAAATTATTACACACATATGAGCACATATA [CACACA_site4543] | 9.47 |
| TACGGTTGTTTATTTTGTACGTAAAAAATATATTAT [XGTACX_site8393] | 9.39 |
| TATTAATTAAAAAAATGTACATAATTATAAATTTTT [XGTACX_site7994] | 8.99 |
| TAATATACATATATATGTACATATATATATATATAT [XGTACX_site2684] | 9.03 |
| TATTTATATTCCTTTACACACTCCATCTTATATCCA [CACACA_site3604] | 9.59 |
| ACCGTGGGAGGACACACACACACACCCACATATATA [CACACA_site4339] | 10.2 |
| ATTTTTGTTATTACATGTACCCATAATTATTATTAA [XGTACX_site3558] | 9.53 |
| AACAATTATTTGTCGACACACGTATATGTTATTTAG [CACACA_site5046] | 9.56 |
| ACAAAAAAATGAAAAGAAAAAGATATACCCCAATAT [CACACA_negctrl_site509] | 9.91 |
| ATATCCATAATAAAAACATGCAACAGAAAAAAAAAA [TGCATGCA_site497] | 9.62 |

| Sequence | gcPBM binding intensity (ln) |
| --- | --- |
| AAGAGAAATATATATTGTACAATAATTTTATTTGGT [XGTACX_site7642] | 9.16 |
| TATATATTAATATTTACACACATGCGCACCCATAAA [CACACA_site2410] | 9.64 |
| TTACAAAAAGGTAATTTACACACTGCATATAGGAAT [CACACA_site8956] | 9.63 |
| TCTTAATATGGTAATACACACTAATATACTTTTGTT [CACACA_site4969] | 9.53 |
| ACCCTTCAATTTAATTGTACAAGAAAAAAAAAAAAA [XGTACX_site2927] | 8.83 |
| TGCTCAAACTTTACAAATGAACGAATATAAAAAAAG [CACACA_negctrl_site541] | 9.03 |
| AAATAATCATAAAATAAACACACATATATAAATATA [CACACA_site7981] | 9.64 |
| ACATAATATACTATTGTGCACATATATATATATATA [GTGCAC_site9761] | 9.33 |
| GTTAATTTAATTATATGTACGAAAAAATACGTTATA [XGTACX_site1306] | 9.05 |
| TTTTTATTTTTTTATTTCTTATCAAATAAAATATAT [XGTACX_negctrl_site537] | 9.08 |
| ATTAAAATGGAGTATTAATATGATATATATATATAT [GTGCAC_negctrl_site509] | 9.25 |
| AGGAACATTTACGCCCCACACACCTACCAACAAAAA [CACACA_site3827] | 9.64 |
| TAAATACAGACATACACACATACACCCACATATATA [CACACA_site547] | 9.95 |
| TATATATATATTTTTGGTACAGATATTTTCTTCTCT [XGTACX_site4432] | 9.26 |
| AATATATATATATATTGTACACACATTTATGCATAT [XGTACX_site6856] | 9.62 |
| TTACAACCATAAAATGCATGTAAATGACAAAAAAAA [TGCATGCA_site944] | 9.19 |
| TAAAATTAAATGAAATCATTATTCATTTTTATTTTA [CACACA_negctrl_site1281] | 8.8 |
| ATTCTTTTTTTTTTCTTATATTCTAATCACCACCTT [XGTACX_negctrl_site179] | 9.17 |
| CATATAAATAAACACACACACACATATATATATATA [CACACA_site5309] | 10.1 |
| TTTGGTAAGCGTGTCGCATGTAGAACAAGTCTACAT [TGCATGCA_site577] | 8.89 |
| AATAGGTGCCTTTTTTCACACACATGTCAACTAAAT [CACACA_site8846] | 9.7 |
| ATGAAATTATTATATAAACACACATTTATTTTATTT [CACACA_site8597] | 9.24 |

| Sequence | gcPBM binding intensity (ln) |
| --- | --- |
| AGAAAAAAAAAAAAAAAACACACGGTACATCCAAAG [CACACA_site124] | 9.66 |
| ATCAAATTATAATCATGTACAAATAAAAAAAAAAAA [XGTACX_site313] | 9.2 |
| AAATATCTACAAATATGTACATATTTTTTTTGGCTT [XGTACX_site6301] | 9.17 |
| TATTTTGTCATAGAACGTACTTATAAATATTTTTTT [XGTACX_site8424] | 9.19 |
| ATAGAAGCTGTTGACGAAGAAAAAAAAAAAAAAAAA [CACACA_negctrl_site110] | 8.56 |
| ATCATATCCACCAAATGAATAATATAAAATAATATA [XGTACX_negctrl_site193] | 9.13 |
| AAATAACATAATAAGGGTACATTAATTTCGATAATG [XGTACX_site835] | 9.43 |
| TATATATATATATATGCACACATTTATACAATTTTA [CACACA_site2986] | 9.16 |
| AATATTTTGTTATTTATTTAATCTAATATTACTATC [CACACA_negctrl_site4] | 9.32 |
| ATATATATATAAATATGTACATATATACATATATAC [XGTACX_site2374] | 9.16 |
| AAAAAAAAAAAATACACACAAACACAAATTAAATAA [CACACA_site3809] | 9.88 |
| ATTATAGAATATTGAAGTACAAAATTTAAAATAAGT [XGTACX_site1468] | 9.46 |
| TAGGAAAATTACAAAAGTACTTGGCACATAATAATG [XGTACX_site6005] | 9.36 |
| TAGATATTTTTGAAAAGTACAAATTTTTAAAAATTA [XGTACX_site4420] | 8.79 |
| GTATGATTACAAGAAAGTAGTCCACTTTAACAACAA [CACACA_negctrl_site1304] | 9.13 |
| TTATATAATGACAAAAAAAAAAAAAAAAAAAAAAAA [CACACA_negctrl_site1467] | 8.39 |
| TAATTTATCCTATAATGTACTTATAAAATATATCAT [XGTACX_site1460] | 9.02 |
| ATGTACATAAACCGCACACATATAAAAAAATAAATA [CACACA_site5571] | 9.45 |
| ATTCAGAGTATATAAAAATTAATATATACATAATAT [CACACA_negctrl_site1782] | 9.18 |
| AGTCCATTTTATTATTGTACATATTAATTTATATCA [XGTACX_site672] | 9.61 |
| TAAAAATATTATAATGCATGCAAAATATTGTTATAA [TGCATGCA_site244] | 8.99 |
| ATAGTTTTTCCAATTCAAAAAAAAAAAAAAAAAAAA [CACACA_negctrl_site969] | 8.47 |

| Sequence | gcPBM binding intensity (ln) |
| --- | --- |
| AAAGTATAAATAAATACACACATATTTATTTATATA [CACACA_site7375] | 9.5 |
| AACATATGATTAAACTGTACAAGAAAAATATAACAT [XGTACX_site4477] | 9.61 |
| GAGAGGATCATCAATTCACACACATAAAAATGAAGT [CACACA_site9010] | 9.58 |
| TGTTATGAGAACAGCACACAAGCTACATCATATATA [CACACA_site870] | 9.22 |
| TATATATAAGATTGATGTACGATTTTGGTGTCTTAT [XGTACX_site2611] | 9.36 |
| TATTATAGTATATATTGTACATATATATATTTTTTA [XGTACX_site8831] | 9.19 |
| ATAATAATATATAGTACACACAAAAATGGAAGTAAA [CACACA_site3318] | 9.78 |
| TTTCTTTTTAAATAATAATGTATAATAAAAAGTTCA [TGCATGCA_negctrl_site195] | 8.81 |
| TTTGTTTGATATATGTGTACATATATATATTATGCT [XGTACX_site3522] | 9.41 |
| TATAATATGTATATCTGTACATATTTTAAATCTAAT [XGTACX_site2426] | 9.05 |
| AAGTACAATTCATGTATGCACTTTATTATATTTTAT | 9.36 |
| AAGATAAAATAATAAAGTACACATATAAATTGAAAA [XGTACX_site2113] | 9.42 |
| GTAATACCCAAACACACACACATACCCATATATATA [CACACA_site5510] | 10 |
| AGAAAGTAAAGCTGTTGTACTATTATATATATTTTA [XGTACX_site8090] | 9.28 |
| TAATGTAATACATATTGTACACATACATATATATTT [XGTACX_site7531] | 9.28 |
| ATATATAATCATCACACATGCAGCCCTGATGAAAAA [TGCATGCA_site687] | 9.25 |
| GGGTATACCAATATAACACACATATATCTATAATAT [CACACA_site6348] | 9.62 |
| TATAAATTTTTATTTACATGCAGTTATTATTTCCAT [TGCATGCA_site41] | 9.24 |
| AATAATAAATAAAAATGTACACATACATTTCTATCC [XGTACX_site7057] | 9.29 |
| TATTAAAAGGTTAAAGCATGCATACATATATATGTT [TGCATGCA_site865] | 9.24 |
| TTTTTGTTACCTATTGTGCACTTCATATAAATTAAA | 9.35 |
| ATATATATATATATATGTACATATTTATATTGTAAA [XGTACX_site8878] | 9 |
